The supplement of paper PMC11417369
± gives the standard deviation of the averaged measurements. Some of the results follow.

Tested on: PfAP2-I AP2 domain 3 (GST-tagged)
Test: gcPBM binding intensity (ln(normalized median fluorescence intensity)); higher = stronger DNA binding
Procedure, shortened: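 After 1 h on an Agilent 4 × 180k array of primer-extended double-stranded 36-bp intergenic genomic probes and negative controls, bound GST-tagged P. falciparum DNA-binding domains were detected with Alexa488 anti-GST antibody and scanned at 488 nm. The domains had been expressed in E. coli, and binding took place in 1× PBS with 1% milk, 0.2 mg/ml BSA, 0.5% salmon testes DNA and 0.03% Triton X-100. Binding intensity is the highest Masliner-normalised natural-log median intensity across replicate spots of either probe orientation.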

| Sequence | gcPBM binding intensity (ln) |
| --- | --- |
| AAAAAATATTGAAGTACACACATTATGAACTTTTTT [CACACA_site1733] | 7.71 ± 0.32 |
| ATAAATAATTATAATTGTACACATATATATATATAC [XGTACX_site3998] | 7.99 ± 0.42 |
| TTCCACATTTTACAGACACACACAATTTATATTACG [CACACA_site8572] | 8.05 ± 0.5 |
| AGAGCATAATAAAACACACACATACATACCTATATA [CACACA_site6566] | 7.84 ± 0.51 |
| TGTTTTTATAATATTAGTACATAATATACATAATTC [XGTACX_site2787] | 7.75 ± 0.4 |
| AATAAATTAATTTTGGGTACATATATATATATATAT [XGTACX_site3807] | 9.46 ± 0.3 |
| TTTACAAAAAATTATACACACACGTACAGATAAATA [CACACA_site4678] | 8.09 ± 0.49 |
| TCCTCATTTTATCATACACACTTGTTTATATGGGTG [CACACA_site4650] | 7.79 ± 0.49 |
| ATAATTTATTTTAAAAGTACTCAATTTGCTTTTCTC [XGTACX_site5749] | 7.68 ± 0.61 |
| ACCCATAAAAATTATGCACACTTAATAAAGCGAAAT [CACACA_site5722] | 10.1 ± 0.57 |
| AAATAATTAAACATATGTACATATTATATATATATA [XGTACX_site6774] | 9.2 ± 0.36 |
| TATATTTATTATAATTGTACATAAAATAAACTAAGA [XGTACX_site4318] | 7.67 ± 0.25 |
| CAAAAAAAAAAAAAAACACACATTAAATTAGAAAGA [CACACA_site7271] | 7.4 ± 0.69 |
| ATATACATTTAAATGTGTACATAATAAAATAAAAAA [XGTACX_site8170] | 8.24 ± 0.45 |
| AATATTTATATTTAGTGTACAGAAATAAAAAAAAAA [XGTACX_site6066] | 8.12 ± 0.58 |
| GCTAATTTATTTTGCAGTACATATATAATAATATAT [XGTACX_site478] | 8.39 ± 0.16 |
| TTTTTATTTAATAGTTGTACATTGAAAAATATGTAT [XGTACX_site3025] | 7.75 ± 0.33 |
| TGATTAAATAAATATATATATTTATATATTATACAG [CACACA_negctrl_site1596] | 7.45 ± 0.44 |
| GCTCTATCAAAAAAATGTACACATATTATCATTCAT [XGTACX_site143] | 8.08 ± 0.44 |

| Sequence | gcPBM binding intensity (ln) |
| --- | --- |
| CAAATAAATATTAAAAGTACACACAGATACACTAAT [XGTACX_site3749] | 7.93 ± 0.42 |
| TATATATATATATATGTGCACTGGACATATTTTTAT [GTGCAC_site9721] | 10.09 ± 0.099 |
| ATTTTTATTTTTATTTGTACTTATATATTCTTAAGC [XGTACX_site4122] | 7.84 ± 0.54 |
| TTTTTAAATATAAACAAAAAAAAAAAATATATCAAT [XGTACX_negctrl_site328] | 7.59 ± 0.59 |
| AATACCCAAGGACACACACACACATATATATATATA [CACACA_site8345] | 9.38 ± 0.11 |
| ATAATATAAATACAAACACACAATTGTGTCCACATT [CACACA_site6920] | 7.97 ± 0.4 |
| AAAAATAGACAAAAGAGTACAAGAAAAAAAGGGTTC [XGTACX_site7843] | 8.17 ± 0.67 |
| ATATTCCTACATACAACACACGACGTTCTCATAAGA [CACACA_site231] | 8.06 ± 0.66 |
| GGAAAATGAAAAACAAAAAAAAAAAAAAAAAAATGA [TGCATGCA_negctrl_site432] | 7.68 ± 0.59 |
| TCTTTTTAGATATATACACACCGTGTCTACCTATAC [CACACA_site7551] | 7.68 ± 0.8 |
| ACATCTGTTATTTGTGGTACTAAAAAAATATATAGT [XGTACX_site8322] | 8 ± 0.41 |
| TTACAATTAATAAAGTGTACTTAACTATTATATATA [XGTACX_site481] | 7.56 ± 0.2 |
| TTTTAAAGTTGTGAGCTTCATTTTTATTTATATGTA [CACACA_negctrl_site1505] | 7.43 ± 0.61 |
| ATATATATATATGTCTGTACATAAAAAATAATAAAT [XGTACX_site3122] | 9.29 ± 0.099 |
| TTGATCTATAATAATACACACTTACATAATTAATTA [CACACA_site6273] | 7.83 ± 0.51 |
| GTCATATTAATATGTACACACATATTTATATTTATA [CACACA_site6798] | 8.11 ± 0.028 |
| TTTTTACTATTTATATGACTAAAAATATATTGAATA [CACACA_negctrl_site188] | 7.49 ± 0.48 |
| TAAATTAATAAACAAGTGCATATATATATATATATA | 10 ± 0.49 |
| CAATTTATTTTTATTACACACTATCCAAGTAATTTC [CACACA_site7402] | 7.83 ± 0.64 |

| Sequence | gcPBM binding intensity (ln) |
| --- | --- |
| TTTTATGTAACATCACGTACTTATATTTAAGTATTC [XGTACX_site7459] | 8 ± 0.45 |
| CAAGCACACGGACACACACACACACGCGCACGCACA [CACACA_site6307] | 8.37 ± 0.48 |
| AAATATATCATACAAAGTACTTGGAATTAATATATA [XGTACX_site8907] | 7.31 ± 0.35 |
| AATATAATATAATGCACACATAAAACAAAAAAAAAA [CACACA_site3012] | 11 ± 0.86 |
| TAATTTTTCCAACTTTGTACAGATATATTAATAAAA [XGTACX_site7856] | 7.74 ± 0.4 |
| TCTTTTAAATAACAACATAAATAAATAAATAAATAA [GTGCAC_negctrl_site319] | 8.42 ± 0.71 |
| GTTGATACATGAAGCTGTACATAATATTTGTCATTT [XGTACX_site8628] | 7.78 ± 0.58 |
| TAAAATTAATTTCTGTTGCACTTATTATTAATTAAC | 9.46 ± 0.16 |
| TTTTTTTTTTTTTGCACACACCATATTTATAGAAAT [CACACA_site5772] | 9.44 ± 0.38 |
| ATATTATACCCGTGTACACATTATAACCATATATAA [CACACA_site5933] | 9.44 ± 0.46 |
| TATATGTATAGAAAATGTACATATAAATATATATAT [XGTACX_site3420] | 8.7 ± 0.2 |
| AATTAAAATAGTAATACACACTTCATAGGAAATGAT [CACACA_site5045] | 7.62 ± 0.46 |
| TATGTATCAAATAAATGTACATATATATATATATAT [XGTACX_site2189] | 9.26 ± 0.38 |
| AAATTTTTTATGAACACACAAATACACGCACTCAAA [CACACA_site7286] | 9.045 ± 0.049 |
| TAAAATATATAAAACTGTACATTTTAAAGGCACAAC [XGTACX_site8342] | 9.72 ± 0.33 |
| AATAATAAAATAAAGGCATGCACAATATGCTATAAA [TGCATGCA_site645] | 8.23 ± 0.87 |
| CCTTTATTTTATATGTGTACTAAATTGTATATATAT [XGTACX_site8717] | 8.46 ± 0.45 |
| ATGTTTTATAAAAGGCGTACACATATGCTTAAGTAA [XGTACX_site6232] | 8.18 ± 0.55 |
| CTGAAGGAAAAAGAAAGTACTTTTTTTTTTTTGAAG [XGTACX_site5973] | 7.57 ± 0.48 |
